# According to publication PMC12136788:
# This is one part of the list.
# B1: 5780690_5780810_951_3pUTR_ENSG00000011275_ENST00000425013|human|control|control (ssRNA)
# RNA: GGGAGUUCUACAGUCCGACGAUCUUCUUGCAUUGGAAAGGCUGGACCUGGCUCUUCAUCAUCACUUGCUAACUGCUGGUCUUCAAACUCUCCUAGAGGAUGGGCAGGCUGAGGAGAAGAGGGGCCUGAAAUCCCACCUUGCUGCAACAGAGGAUUGAGCAUCA
# B2: chr7:75932113:75932114:+_ENSG00000106211_ENST00000248553|hu_hu|hu_hu_hu_mus_False|48_48 (ssRNA)
# RNA: GGGAGUUCUACAGUCCGACGAUCCUGCGACCACUCAUCGGGCAACCGGGGCACCCCGAAAGCUUGAUCGAAGAGGCGGCUGUGUGCGUACCAGUCGUCCCGGAAUGGUUCCCAGCUCGGGCUCCGCAGCAGCGAGAAGGGCACCAACAGAGGAUUGAGCAUCA
# B3: 175229998_175231108_1140_3pUTR_ENSG00000164118_ENST00000503780|human|control|control (ssRNA)
# RNA: GGGAGUUCUACAGUCCGACGAUCUUCCAAACAGUCUAACCUUUUCUCUAUCGAAGUCAGUUUCUUAAGAUUUUCUUGGCAUUCAGCAAGCAUAGUUUGUAGUGCAGUAAUCUCAGGAUUAACAUUUACAUCCUGUUGCUCAGCCAACAGAGGAUUGAGCAUCA
# B4: 65840112_65840232_2121_3pUTR_ENSMUSG00000037822_ENSMUST00000139122|mouse|control|control (ssRNA)
# RNA: GGGAGUUCUACAGUCCGACGAUCGCGGGUAAGACUUCUGGGUGGCCACAGCAAAAGAGGAAUCCUGUACCGUGUGUUGUUAAUUUGUUCAGAAUUUAACUUACCUGGUUAAGUCACUCCUUAGAAACACAAGUAGCUAAGAGGCAACAGAGGAUUGAGCAUCA
# B5: 127872545_127873548_743_3pUTR_ENSMUSG00000025373_ENSMUST00000096386|mouse|control|control (ssRNA)
# RNA: GGGAGUUCUACAGUCCGACGAUCCAGUUCAUCUUUGGGCAUCUCCAGGCCACAGCCCUGCUCACAGGUCACAGGCCGCUUCGGGUUGUGCUCACAGUCACUGAGGUGGGACAUGAGGUUGUCAAGCCUGACAACAGCACUGCACAACAGAGGAUUGAGCAUCA
# B6: chr12:25358290:25358291:-_ENSG00000133703_ENST00000311936|hu_hu|FALSE|FALSE (ssRNA)
# RNA: GGGAGUUCUACAGUCCGACGAUCGUACAGUUCAUGACAAAAAUAUUACAAAUUUUAGAUCACUUCACAGCACAUACUCCUAUAAACAUUUAAAAGUUAAUUUCAAUUAAAAGAGUGGUCAUUUUUAAUGUUUGAUAUGACCAACAACAGAGGAUUGAGCAUCA
# B7: chr5:137520266:137520267:+_ENSG00000112984_ENST00000394894|hu_hu|FALSE|FALSE (ssRNA)
# RNA: GGGAGUUCUACAGUCCGACGAUCAUCAAGGCCUGUGUCUGCCUUAGCCCCUUUCUCUAAGCUGGGGGAUACCUGAAGACUAUGUUCCUUGAUGAACGAGUGCAGGGAUGGGAAUCCCAGUUGCAUAGGUGGGGCAUGCACAAGCAACAGAGGAUUGAGCAUCA
# B8: chr1:58468927:58468928:-_ENSMUSG00000026034_ENSMUST00000148330|mus_mus|mus_mus_mus_hu_False|18_98 (ssRNA)
# RNA: GGGAGUUCUACAGUCCGACGAUCAAUUACUGAAAAAUGAAAGAUGUACCUUAGCUAUGUACUUAAUGAACCAAAUUACCCAAACAAAAUAAACAUGGCAAUAUAAAAAUGUUAAGAAAAUAACUUACUGUACAAAAUAACUUACAACAGAGGAUUGAGCAUCA
# B9: 135896134_135898045_2707_3pUTR_ENSMUSG00000039959_ENSMUST00000060311|mouse|control|control (ssRNA)
# RNA: GGGAGUUCUACAGUCCGACGAUCCGCGUGAACACACCAUCAGCUCCUCGAACUUCCCUUUGCCUUGGACCACAAGAUCAGCAGCAUCCACCAUGAUGGUAGCUCCCCAACCAACAGCUUUGGAGGCGGAUAUCAGCCCUUCCGCAACAGAGGAUUGAGCAUCA
# B10: chr7:141438946:141438947:+_ENSG00000106028_ENST00000265304|hu_mus|hu_hu_hu_mus_True|18_38 (ssRNA)
# RNA: GGGAGUUCUACAGUCCGACGAUCGACGAAAUACCUGUAACACAGGUCUUCGAAACAUGGCUUCUGUUUUUCUUACAACCUAAUCUUUAGGCUUUUCCUGACGAUCUGAAAGAAAAGGCCCAGCCACUAAAUCAAGAAACUACACAACAGAGGAUUGAGCAUCA
# B11: chrX:71549762:71549763:+_ENSMUSG00000019087_ENSMUST00000019231|mus_mus|mus_mus_mus_hu_False|38_88 (ssRNA)
# RNA: GGGAGUUCUACAGUCCGACGAUCAAACCCGUGUACUUCUUAUUGUUACAUCACCCCCACCAGAAAACGAUAACGACAGCCAAGCAGGACAGACAGUCAAGUAGUCUUUCCACACUCCCAAACUCAGGGAGCCCUAUAACCUUACAACAGAGGAUUGAGCAUCA
# B12: chr17:4210377:4210378:-_ENSG00000132388_ENST00000396981|hu_mus|FALSE|FALSE (ssRNA)
# RNA: GGGAGUUCUACAGUCCGACGAUCAAGUGUAUCUGGAGGACCAAUAAUAAGGACUUCCCAACGAUAGAGAUCAUUGUCGUCUAUUAAACCUGCUGAAAAGCCUUCCACUGGAUUUUUGUUGAGUUCUGCCAGCUGUCUUCGCAGCAACAGAGGAUUGAGCAUCA
# B13: chr12:39756943:39756944:-_ENSG00000139116_ENST00000544797|hu_mus|hu_hu_hu_mus_False|38_78 (ssRNA)
# RNA: GGGAGUUCUACAGUCCGACGAUCGGUUUGGCUGUUACCCCCAAGGGAAUCCUGCAAUAGUCUUGUUAGCUUAGAGUCUCUGUAAGGGACAUGGGUGGCCCUCUUGCUCUUGUCCCCCAAGGCGCUGAUUACAUUCCCAAGAGCCAACAGAGGAUUGAGCAUCA
# B14: chr11:18422405:18422406:+_ENSG00000134333_ENST00000379412|hu_mus|FALSE|FALSE (ssRNA)
# RNA: GGGAGUUCUACAGUCCGACGAUCCAGCUUGGAGUUCGCAGUUACACAGUAGUCUUUGCUGGAGACAAUUUUUGGUGUUUUAAGGAAGAGGCUGCCAUGCUGGAGAUCCAUCAUCUCGCCCUUGAGUUUGUCUUCCAUGACGUCCAACAGAGGAUUGAGCAUCA
# B15: chr22:32879901:32879902:+_ENSG00000100225_ENST00000397426|hu_mus|hu_hu_hu_mus_False|38_38 (ssRNA)
# RNA: GGGAGUUCUACAGUCCGACGAUCCUCUUCCAUACUCAUGGCAUCCUGAAUUGACUCAGCUUCAACAUUUUGACUAGGCCCUUCCAUACUGUCAUCAUUCCAAACACCAAAUGGGGUGGCCUGUCCUUGGGAUGAAUCAGUCCCCAACAGAGGAUUGAGCAUCA
# B16: 97129297_97129417_136_5pUTR_ENSMUSG00000030619_ENSMUST00000107234|mouse|control|control (ssRNA)
# RNA: GGGAGUUCUACAGUCCGACGAUCUCCCGCCGCCCUCUCGACACUUUGCACCGAGGCGUCGGAUCUGCUGGCUCAGAGGGCAGGGGUUUCCUACGUCCCCCUUCCCCACCAGCGCCUAGAGACGAGGCGGAACUCAAAGGGCUGCAACAGAGGAUUGAGCAUCA
# B17: chr3:124456682:124456683:+_ENSG00000114491_ENST00000536109|hu_hu|FALSE|FALSE (ssRNA)
# RNA: GGGAGUUCUACAGUCCGACGAUCAUUAUGAUUCGCUGCCACAAAGACAUUCUCCUGAAUAAACCUCUUCACUCUCCCAACUGUCUCAGCAUCAACUUUUUUCUGCUGCUCGAGAAUCUCCAGCAUUUUGGACAAUGUACACACCAACAGAGGAUUGAGCAUCA
# B18: chr11:46405157:46405158:+_ENSG00000110492_ENST00000395566|hu_hu|hu_hu_hu_mus_False|48_78 (ssRNA)
# RNA: GGGAGUUCUACAGUCCGACGAUCCCCUCCCCACUUUGGGCACUUGGUGUGGGCGUGAAGGCAGGGCCGUGAUUGACAGAGCUGACAAGCAGACAGAAGGCACUGGUGGGUUAUAUCUUGGGCCUGUGGGAGAGGAGGGCUCCGCAACAGAGGAUUGAGCAUCA
# B19: chr2:65860617:65860618:+_ENSMUSG00000044647_ENSMUST00000122912|mus_hu|FALSE|FALSE (ssRNA)
# RNA: GGGAGUUCUACAGUCCGACGAUCGAUCUGAUUUGGAGUUCCUGGAAUGUGGCUAUCUAUUUGGUAAUACAGAGUUGAAGAGUUGGCAUAAAAAGAAGCAUUCUUUGCAUGGCUUUCGUGAACGGCGGUGCCAUCAGAAUAACACAACAGAGGAUUGAGCAUCA
# B20: chr13:21172813:21172814:+_ENSG00000032742_ENST00000351808|hu_mus|motif|central (ssRNA)
# RNA: GGGAGUUCUACAGUCCGACGAUCAAUAUUUCCCAUAUUCACUUUCAGUCUUCCUGCAUUGCUAAACAUCUUGUUUUUCACGGUAACUUGGUAUGUGUUCAGUGCUUCUGCAUACAUUUCAUUAGCAGAAUACUGACUGGCCAACAACAGAGGAUUGAGCAUCA
# B21: chr1:109605286:109605287:-_ENSG00000197780_ENST00000461096|hu_mus|hu_hu_hu_mus_True|98_108 (ssRNA)
# RNA: GGGAGUUCUACAGUCCGACGAUCAAGAACAAUAACAUUCAGUGAUCACCUCUUUAAAUGCAAUUAUCCUUAUUAUAAGCUAAGCAGAAUAAUAAUUUAAUACCGUAAGUGAACUACACACAAAGCCUGAACCGCGAAAAUGGUCAACAGAGGAUUGAGCAUCA
# B22: chr11:86935578:86935579:+_ENSMUSG00000020492_ENSMUST00000020794|mus_mus|FALSE|FALSE (ssRNA)
# RNA: GGGAGUUCUACAGUCCGACGAUCCUCAUCUGAAAUGCAUCACGAUCCUCUCGGUCAAGGGAAAUGUCAGGCUUCCUCAUCAGCCCCGCCUCUAGACGUCUCGCCCAAUCUCUGCAGUUGGUCUUCUUUCCACCAGCCUUCCUCCAACAGAGGAUUGAGCAUCA
# Biological target: T1, UNK ZnF1-3 (human, UniProt Q9C0B0 31-174)
# T1 sequence: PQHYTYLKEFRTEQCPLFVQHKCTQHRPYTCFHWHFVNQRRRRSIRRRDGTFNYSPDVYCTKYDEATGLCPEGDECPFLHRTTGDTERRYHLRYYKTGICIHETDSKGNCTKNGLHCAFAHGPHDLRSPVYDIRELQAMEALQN
# Assay: nsRBNS (natural sequence RNA bind-n-seq); RBNS binding buffer (assumed for nsRBNS): 25 mM Tris pH 7.5, 150 mM KCl, 3 mM MgCl2, 0.01% Triton X-100, 500 ug/ml BSA, 20 U/ml SUPERase-In, 4 C; UNK is unkempt and MSI1 is Musashi-1; names of the RNAs are library labels; protein concentration not given here; high values mean tight binding
row,Binder,binding signal [enrichment R]
1,B1,1.18
2,B2,0.938
3,B3,0.961
4,B4,1.19
5,B5,0.85
6,B6,1.93
7,B7,0.903
8,B8,1.56
9,B9,1.26
10,B10,0.87
11,B11,1.78
12,B12,0.784
13,B13,0.85
14,B14,0.649
15,B15,0.946
16,B16,0.369
17,B17,0.879
18,B18,2.01
19,B19,1.15
20,B20,0.432
21,B21,1.22
22,B22,0.768
